Measurements: PubChem BioAssay AID540317 (National Center for Advancing Translational Sciences (NCATS), 2011)
In all, about 390,000 compounds went through this assay and about 2,200 (0.56%) were called active. The inconclusive results got no clear call from the source; some entries with a clear call stand among them for comparison. The call rests on the fitted dose curve; in most records, active means well fitted inhibition curve with a large enough effect; inconclusive means small, poorly fitted or top-dose-only effect; inactive means no such curve, though single readings can be large or run the other way. A potency beside an inconclusive call is a rough fit, not a confirmed value.

The molecules below were run against Chromobox protein homolog 1 (Homo sapiens) (UniProt P83916) (assay: HTS for Inhibitors of HP1-beta Chromodomain Interactions with Methylated Histone Tails). Conditions: AlphaScreen HP1-beta / biotin-H3K9me3 peptide binding; series mostly up to 114 µM; activity change, negative = inhibition: at the top concentration.
How it was run: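 AlphaScreen: HP1-beta (50 nM) preformed 30 min with biotin-H3(1-18)K9me3 peptide (50 nM) in PBS pH 7.4, 0.01% Tween-20. Compound added for 30 min at RT, then streptavidin donor/nickel chelate acceptor beads (10 ug/mL) for 30 min.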
Further: nearly all actives have a fitted effect of over 70% in size.
Potency means the concentration at half of the fitted maximal effect; tags describe the fitted curve by direction and shape.

Sequence of UniProt P83916 (P83916 whole entry, looked up): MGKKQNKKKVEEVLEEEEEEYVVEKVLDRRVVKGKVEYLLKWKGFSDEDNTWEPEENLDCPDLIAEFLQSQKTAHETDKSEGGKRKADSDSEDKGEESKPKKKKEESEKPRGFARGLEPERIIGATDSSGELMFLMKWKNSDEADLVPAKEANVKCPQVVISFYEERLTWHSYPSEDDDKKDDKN

SMILES	activity change, negative = inhibition	Potency
CC(C)[C@H](NC(=O)NCc1ccc(Cl)cc1)C(=O)O	inactive: 33%	
COc1cccc(-n2c(SCc3cc(=O)oc4cc(O)c(O)cc34)nc3ccccc3c2=O)c1		inconclusive: 44.7 µM [inhibitor, partial curve, poor fit]
Cc1ccccc1N=Nc1ccc(O)c2ncccc12		inconclusive: 15.8 µM [inhibitor, full curve]
COc1ccc(NC(=O)CN(C)C(=O)/C=C/c2cn(Cc3ccccc3)nc2-c2cccnc2)cc1		inconclusive: 89.1 µM [inhibitor, single point]
COc1ccc(Nc2nc(C)c(-c3ccccc3)s2)cc1		inconclusive: 20 µM [inhibitor, partial curve, poor fit]
COc1cc2c(cc1OC)C(c1ccc(-c3ccccc3Cl)o1)=NCC2		inconclusive: 39.8 µM [inhibitor, single point]
CC(=O)c1cccc(OCc2cc(C(=O)N3CCSCC3)no2)c1		inconclusive: 89.1 µM [inhibitor, single point]
COc1ccc(C2C(C#N)=C(N)Oc3c2c(-c2ccccc2)nn3-c2ccccc2)c(OC)c1OC (stereo not drawn)		inconclusive: 50.1 µM [inhibitor, partial curve]
COc1ccc(CC(=O)Nc2ccc3nc(C)sc3c2)cc1OC	inactive: 36.2%	
COc1ccc(NC(=O)Nc2ccc(N(C)C)cc2)cc1		inconclusive: 28.2 µM [inhibitor, single point]
CCn1c(SCC(=O)OC)nc2sc3c(c2c1=O)CCC3		inconclusive: 31.6 µM [inhibitor, partial curve, poor fit]
CCC(c1nnnn1C1CCCCC1)N1CCN(C(=O)c2ccco2)CC1 (stereo not drawn)		inconclusive: 89.1 µM [inhibitor, partial curve, poor fit]
COc1ccccc1Nc1cc(C)nc2c(C)ccc([N+](=O)[O-])c12		active: 15.8 µM
Cc1ccc(NC(=O)CN2C(=S)NC(C)(C)CC2C)cc1Cl (stereo not drawn)	inactive: 11.7%	
CN(C)CCOC(=O)c1ccc2[nH]c3c(c2c1)CSCC3		inconclusive: 25.1 µM [inhibitor, partial curve, poor fit]
N#Cc1nc(COc2ccccc2F)oc1NCc1ccc(F)cc1	inactive: -7.96%	
CC(=O)c1ccc(N2CCN(c3ncccn3)CC2)c([N+](=O)[O-])c1	inactive: -3.75%	
Nc1c(C=C2C=CC(=O)C=C2)c(=O)nc2sc(CC(=O)N3CCCCC3)nn12	inactive: 14.3%	
COc1cc(NC(=O)CCCN2C(=O)CCn3nc(-c4cn(C)c5ccccc45)cc32)cc(OC)c1	inactive: 19.4% [at 57 µM]	
CC(=NNC(=S)N(Cc1ccccn1)Cc1ccccn1)c1cnccn1		inconclusive: 20 µM [inhibitor, partial curve, poor fit]
Cc1ccn2c(-c3csc(NCc4ccccc4)n3)c(C)nc2c1		inconclusive: 14.1 µM [inhibitor, full curve, poor fit]
COc1cc(/C=C2/C(=O)N(c3ccc([N+](=O)[O-])cc3)N=C2N2CCOCC2)ccc1O		inconclusive: 12.6 µM [inhibitor, full curve]
O=c1oc2ccc(NS(=O)(=O)c3cccc4cccnc34)cc2s1	inactive: -1.13%	

SMILES	activity change, negative = inhibition	Potency
Cc1cccc(-c2cc(N)n(-c3ccccc3)n2)c1		inconclusive: 56.2 µM [inhibitor, partial curve]
Cc1cccc(NC(=S)NCc2ccc3c(c2)cc(C)n3C)c1C		inconclusive: 15.8 µM [inhibitor, full curve]
N#Cc1c(NC(=O)c2cccnc2)sc2c1CCC2		inconclusive: 8.91 µM [inhibitor, single point]
O=C(CN1CCCCC1)Nc1ccc(S(=O)(=O)N2CCCCCC2)cc1	inactive: 19.2%	
Cc1cc2c(cc1S(=O)(=O)CCC(=O)N(C)Cc1ccccc1)OCC(=O)N2		inconclusive: 20 µM [inhibitor, full curve]
Cc1ccc2sc(N(CCCN(C)C)C(=O)c3nc4ccccc4s3)nc2c1C		inconclusive: 79.4 µM [inhibitor, partial curve, poor fit]
CSc1cccc(NC(=O)N2CCN(S(=O)(=O)c3ccc4c(ccn4C)c3)CC2)c1	inactive: 6.57% [at 57 µM]	
CCOc1cccc(=O)c2c(C)n(CC(=O)c3ccccc3)c(C)c12		active: 79.4 µM
COc1ccc(CNC(=S)N/N=C(\C)c2ccc(OC)cc2)cc1		inconclusive: 39.8 µM [inhibitor, partial curve]
CCc1cc[n+](C2=C([O-])c3ccccc3C(=O)/C2=N\S(=O)(=O)c2cccs2)cc1		inconclusive: 70.8 µM [inhibitor, partial curve]
S=P(c1ccc(N2CCOCC2)cc1N1CCOCC1)(N1CCOCC1)N1CCOCC1		inconclusive: 3.98 µM [inhibitor, full curve]
O=C1CCCc2c1cc(-c1ccccc1)n2-c1ccccc1		inconclusive: 39.8 µM [inhibitor, single point]
COc1cccc(/C=N/Nc2nnc(C)n2N)c1OCc1ccccc1Cl	inactive: 8.43%	
CCn1nc([N+](=O)[O-])c(C(C#N)c2nc3ccccc3n2C)c(Cl)c1=O (stereo not drawn)		inconclusive: 39.8 µM [inhibitor, partial curve]
CCn1nnc(-c2ccccc2NC(=O)c2cnccn2)n1	inactive: 27.3%	
CCN(C(=O)C(C)N1C(=O)/C(=C/c2ccco2)SC1=S)C1CCS(=O)(=O)C1 (stereo not drawn)		inconclusive: 50.1 µM [inhibitor, partial curve]
Cc1cccc(C)c1NC(=O)CSc1nnc(NC(=O)C2CC2)s1		inconclusive: 89.1 µM [inhibitor, single point]
O=S(=O)(Nc1ccc(N2CCCCC2)cc1)c1cccc2cccnc12		inconclusive: 25.1 µM [inhibitor, single point]
O=[N+]([O-])c1ccc(C2NS(=O)(=O)N=C3CCCCCN32)cc1 (stereo not drawn)	inactive: 57.2%	
O=C(NCc1ccc2c(c1)OCO2)c1ccc(-c2ccc(Cl)cc2)o1		inconclusive: 50.1 µM [inhibitor, partial curve]
CC(NC(=O)C12CC3CC(CC(O)(C3)C1)C2)c1ccccc1 (stereo not drawn)	inactive: 1.33%	
Cc1cc(C)cc(NC(=O)CCn2c(=S)[nH]c3ccccc3c2=O)c1	inactive: 28.6%	
COc1ccc(-c2nnc(SCC(=O)NNC(=O)Cc3ccccc3)n2C)cc1OC		inconclusive: 39.8 µM [inhibitor, single point]

SMILES	activity change, negative = inhibition	Potency
COc1ccc(Nc2nc(NC(C)(C)C)nc(N3CCCC3)n2)c(OC)c1		inconclusive: 28.2 µM [inhibitor, partial curve, poor fit]
Cc1cc(C)c(C)c(S(=O)(=O)N2CCN(c3ccc(O)cc3)CC2)c1C		inconclusive: 35.5 µM [inhibitor, partial curve]
O=[N+]([O-])c1ccc(OCCN2CCNCC2)cc1		inconclusive: 20 µM [inhibitor, full curve]
COc1ccc(OC)c(NC(=O)C2CCN(Cc3cnn(-c4ccccc4)c3-n3cccc3)CC2)c1		inconclusive: 17.8 µM [inhibitor, full curve]
CN1C(=O)NC2(O)C(=O)c3ccccc3C12O (stereo not drawn)		inconclusive: 7.08 µM [inhibitor, single point]
CCCCC1C(=O)N(c2ccccc2)N(c2ccc(O)cc2)C1=O (stereo not drawn)		inconclusive: 39.8 µM [inhibitor, partial curve, poor fit]
N#C/C(=N\Nc1ccc(S(=O)(=O)N2CCc3ccccc32)cc1)C(N)=S		active: 6.31 µM
CC1CCCCC1NC(=O)CSc1ccsc1[N+](=O)[O-] (stereo not drawn)	inactive: 16.3%	
COCCN1Cc2cccc(C(=O)Nc3ccc(C)c(C)c3)c2C1=O	inactive: 23.5%	
CCS(=O)(=O)N1CCN(Cc2ccc([N+](=O)[O-])cc2)CC1		inconclusive: 22.4 µM [inhibitor, full curve, poor fit]
CCOC(=O)c1sc(NC(=O)CSc2nnc(Cc3ccccc3)o2)c(C#N)c1C		inconclusive: 7.94 µM [inhibitor, full curve, poor fit]
CCCCOCC(O)CCc1n[nH]c(=S)n1-c1ccccc1 (stereo not drawn)	inactive: 50.4%	
CC1Cc2cc(/C(O)=C3/C(=O)C(=O)N(CC4CCCO4)C3c3ccco3)ccc2O1 (stereo not drawn)		inconclusive: 28.2 µM [inhibitor, full curve, poor fit]
Cc1nn(-c2ccccc2)c(Cl)c1/C=N/Nc1ccc(S(=O)(=O)Nc2ccccc2C(=O)O)cc1[N+](=O)[O-]		inconclusive: 28.2 µM [inhibitor, partial curve]
COc1ccccc1N1CCN(/N=C/c2ccc([N+](=O)[O-])cc2)CC1		inconclusive: 14.1 µM [inhibitor, full curve, poor fit]
COc1ccc(CCNC(=O)CN(c2ccc(OC)c(OC)c2)S(=O)(=O)c2ccc(C)cc2)cc1		inconclusive: 89.1 µM [inhibitor, single point]
Cc1ccc(-n2nc(C)c3c(C)c(CCC(=O)NCc4ccccc4Cl)c(C)nc32)cc1	inactive: 33.6%	
O=[N+]([O-])c1ccc(-c2c[nH]c(=S)[nH]2)cc1		inconclusive: 7.08 µM [inhibitor, full curve]
COc1cc2c(cc1OC)CN(Cc1ccc(C)s1)CC2		inconclusive: 50.1 µM [inhibitor, partial curve, poor fit]
CC(C)CNc1cc(NC2CCCCC2)c2c3c(onc13)-c1ccccc1C2=O		inconclusive: 14.1 µM [inhibitor, full curve, poor fit]
COc1cc(/C=C2/C(=O)ON=C2c2ccccc2)ccc1O	inactive: -17.1%	
O=C(/C=C/c1ccccc1)Nn1cnc2ccccc2c1=O		inconclusive: 89.1 µM [inhibitor, single point]
